The supplement of paper PMC12067230
The data scatter; read single values as rough.

B1: library; a variant is named by its letters at X, in order (parent)
chain: EASNCFAIRHFENKFAVETLICXXXXXXXXX

Variants of: B1
Experiment: amyloid nucleation score relative to library mode (yeast Sup35 reporter selection) (log enrichment difference); higher = more amyloid nucleation; sequences are the first 22 residues of the Bri2 peptide extended by up to 12 random residues
Details: random library (experiment): 3;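 active = nucleation score significantly above 0 at FDR 0.05; inactive = not significantly above 0 or absent from output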
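Note: [psi-pin-] Saccharomyces cerevisiae expressing SupN fusions, induced by 100 µM Cu2SO4, selected 7 d at 30 °C without adenine and uracil, scored by deep sequencing of output versus input.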

| Variant | amyloid nucleation score |
| --- | --- |
| VVVSRNPSY | inactive |
| IVYPMSTSM | 6.94 |
| YVYSAFGNG | 4.98 |
| DWCNDRNDS | 6.71 |
| KWLLVHPQH | inactive |
| VWSKEAGRS | 3.03 |
| VYELVVDKL | 2.82 |
| QYMAAMRLV | inactive |
| WYNEWVKAG | inactive |
| HYQYAPCVS | inactive |
| FYRRGDSSG | inactive |
| VYYGSDITR | 4.46 |
